PubChem BioAssay AID686978 (National Center for Advancing Translational Sciences (NCATS), 2013)
The whole screen tested about 420,000 compounds, of which about 64,000 (15%) were called active. The shares of active, inactive and inconclusive entries below differ from those in the screen. Calls follow the shape of the dose curve; as a rule, active = well fitted inhibition curve with a large enough effect; inconclusive = small, poorly fitted or top-dose-only effect; inactive = flat fitted curve, though single readings scatter. No potency is given beside an inconclusive call; the fits are too rough. Peptide text beside a SMILES is read from it.

test: qHTS for Inhibitors of human tyrosyl-DNA phosphodiesterase 1 (TDP1): qHTS in cells in absence of CPT; settings: DT40 Tdp1-/- hTDP1 cells, no CPT, ATP luminescence, 48 h; activity change, negative = growth inhibition: at 46.2 µM (top of the series) unless noted; also: nearly all actives have a fitted effect of over 55% in size
Procedure, shortened: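 Growth kinetics read by CellTiter-Glo luminescence after ≥48 hr at 37 °C. Cells: DT40 Tdp1-/- stably carrying human TDP1, 400 per well, compound exposure in the absence of CPT (DMSO vehicle).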
% is scaled to controls: 0 for no effect and ±100 for the full control effect; potency is read from the fitted curve at half-maximal effect; tags tell the direction and shape of the fitted curve.

Row | Compound | Potency | activity change, negative = growth inhibition
1 | CCCCN(CC)C(=O)Cc1cn(C)c2ccccc12 | inconclusive [inhibitor, single point] | –
2 | C/[N+]([O-])=C/c1c(OCc2ccccc2)ccc2ccccc12 | active: 23.1 µM | –
3 | CC(C)(C)c1nc(SCC(=O)Nc2ccc(N3CCOCC3)cc2)c2ccccc2n1 | inconclusive [inhibitor, single point] | –
4 | CSCC[C@H](NC(=O)C1CCCC1)c1nc2ccccc2[nH]1 | inconclusive [inhibitor, full curve, poor fit] | –
5 | O=C(Cn1cnc(Cl)c1Cl)c1ccc(F)cc1 | inconclusive [inhibitor, partial curve] | –
6 | NC(c1csc(NC(=O)Nc2ccccc2Oc2ccccc2)n1)c1ccccc1Cl (stereo not given) | inconclusive [inhibitor, single point] | –
7 | COc1ccc(N2CCN(CCCNC(=O)CN3C(=O)COc4ccccc43)CC2)cc1 | inactive | –
8 | CCCNc1c(NS(=O)(=O)c2ccc(C(C)(C)C)cc2)c(=O)oc2ccccc12 | inconclusive [inhibitor, single point] | –
9 | O=C(Nc1ccc(Br)cc1)c1ccc2ncsc2c1 | inconclusive [inhibitor, single point] | –
10 | O=c1c2ccccc2sn1-c1cccc(Cl)c1 | active: 2.31 µM | –
11 | Cc1[nH]c(=O)[nH]c(=O)c1CSc1nnc(CCCCCNC(=O)OC(C)(C)C)o1 | inconclusive [inhibitor, single point] | –
12 | C=CCOC(=O)Nc1c(C(=O)OC)[nH]c2ccc(Cl)cc12 | inconclusive [inhibitor, single point] | –
13 | COc1cccc(CNc2ncn[nH]2)c1OCc1ccc(F)cc1 | inactive | –
14 | CCCCCOc1ccc(C(=O)C(c2ccccc2)N2CCOCC2)cc1 (stereo not given) | inconclusive [inhibitor, single point] | –
15 | Cc1cc(C)n(CCC(=O)N/N=C/c2ccc(O)cc2O)n1 | active: 23.1 µM | –
16 | CCCCc1ccc(NC(=O)CSc2nc(=O)n(CCCN3CCOCC3)c3c2CCC3)cc1 | inconclusive [inhibitor, single point] | –
17 | CC(=O)c1ccc(NC(=O)c2ccc(-c3nc(CSc4ccc(C)cc4)c(C)o3)cc2)cc1 | inconclusive [inhibitor, partial curve, poor fit] | –
18 | Cc1ccc2occ(/C=N/NC(=O)c3ccc(O)cc3)c(=O)c2c1 | inconclusive [inhibitor, partial curve] | –
19 | COc1ccc(NC(=O)C2CCC(C(C)(C)C)CC2)cc1S(=O)(=O)N1CCOCC1 (stereo not given) | inconclusive [inhibitor, partial curve] | –
20 | CCc1ccc(NC(=O)c2cnc3c(-c4ccccc4)c(C)nn3c2C)cc1 | inconclusive [inhibitor, single point] | –
21 | CC1CCCC(C)N1C(=O)COC(=O)COc1ccc(C#N)cc1 (stereo not given) | inactive | –
22 | CCCCCCCNC(=O)CN1N=C(c2ccc(C)cc2)CCC1=O | inactive | –

Row | Compound | Potency | activity change, negative = growth inhibition
23 | Cc1ccc(OC(C)C(=O)N2CC(=O)Nc3ccccc32)c(C)c1 (stereo not given) | inactive | –
24 | Cc1ccc(O)c(C(=O)c2cnc3c(c2)COc2ccc(C)cc2-3)c1 | inconclusive [inhibitor, partial curve, poor fit] | –
25 | CC(=O)NNS(=O)(=O)c1scc(S(=O)(=O)c2ccc(Cl)cc2)c1C | inactive | –
26 | COCCN(C(=O)CSc1nnc(-c2ccccc2F)n1N)c1c(N)n(Cc2ccccc2)c(=O)[nH]c1=O | inactive | –
27 | COc1ccc(-c2nnn(CC(=O)NC3CCCc4ccccc43)n2)cc1OC (stereo not given) | inconclusive [inhibitor, partial curve, poor fit] | –
28 | CC[C@H](C)CCCCC(=O)N[C@@H](CCN)C(=O)N[C@H](C(=O)N[C@@H](CCN)C(=O)N[C@H]1CCNC(=O)[C@H]([C@@H](C)O)NC(=O)[C@H](CCN)NC(=O)[C@H](CCN)NC(=O)[C@H](CC(C)C)NC(=O)[C@@H](CC(C)C)NC(=O)[C@H](CCN)NC1=O)[C@@H](C)O (HELM PEPTIDE1{[CC[C@H](C)CCCCC(=O)[*:2]].[Dab].T.[Dab].[Dab].[Dab].[dL].L.[Dab].[Dab].T}$PEPTIDE1,PEPTIDE1,5:R3-11:R2$$$V2.0) | inactive | –
29 | COc1ccc(-c2noc(N3CCC(C(=O)Nc4ccccc4F)CC3)n2)cc1 | inactive | –
30 | Cc1c(Cl)cccc1NC(=O)CSc1nnnn1C | inconclusive [inhibitor, single point] | –
31 | COc1cccc(Cn2c(C)c(CNCc3cccc(C)c3)c(C(=O)O)c2C)c1 | inconclusive [inhibitor, full curve] | –
32 | O=C1CC(c2ccco2)CC2=C1C=Nc1ccccc1N2 (stereo not given) | inconclusive [inhibitor, single point] | –
33 | Cc1ccc(NC(=S)NCc2ccc3[nH]c4c(c3c2)CCCC4)cc1 | active: 13 µM | –
34 | COc1ccc(Br)cc1C(=O)Nc1ccccc1N1CCN(C(=O)c2ccccc2)CC1 | active: 16.4 µM | –
35 | Cc1ccc(S(=O)(=O)N2CCN(c3nc(-c4ncco4)nc4ccccc34)CC2)cc1 | active: 11.2 µM | –
36 | COc1ccc(/C=C2\OC(=O)c3c(OC)cccc32)cc1OC | inconclusive [inhibitor, single point] | –
37 | COCC1CCCN(Cc2ccc3c(c2)CN(C(=O)c2ccc(-c4ccc(C)o4)cc2)CCO3)C1 (stereo not given) | inactive | –
38 | O=C(CSc1nc2ccccc2nc1Cc1ccccc1)N1CCc2ccccc21 | inactive | –
39 | O=C(NCc1ccccc1)C1c2ccccc2OCC(=O)N1Cc1ccccc1 (stereo not given) | active: 11.6 µM | –
40 | COc1ccc(NS(=O)(=O)c2cccc3nsnc23)cc1OC | inconclusive [inhibitor, partial curve] | –
41 | Cc1noc(C)c1CN1C(=O)NC(Cc2ccccc2)(Cc2ccccc2)C1=O | inconclusive [inhibitor, partial curve] | –
42 | O=C(c1ccc(Cl)cc1)C1CCCN(Cc2ccc(Oc3ncccn3)cc2)C1 (stereo not given) | inactive | –
43 | CC(C)N(C(=O)[C@H]1C[C@H](CC(=O)NC(C)(C)C)C(=O)N2CCc3c([nH]c4cc(-c5ccco5)ccc34)[C@]12C)C(C)C | inconclusive [inhibitor, single point] | –
44 | CCN(CC)S(=O)(=O)c1cccc(C(=O)N[C@H](C(=O)OCC(=O)Nc2ccccc2)C(C)C)c1 | inconclusive [inhibitor, partial curve, poor fit] | –

Row | Compound | Potency | activity change, negative = growth inhibition
45 | CCC1(c2ccc(Cl)cc2)NC(=S)N(c2ccccc2)N1 (stereo not given) | inconclusive [inhibitor, single point] | –
46 | COc1ccc(-c2c3c(nc4sc(C(=O)Nc5cccc(OC)c5)c(N)c24)CC(C)(C)CC3=O)cc1 | active: 13 µM | –
47 | O=C1C=C(c2ccc3ncccc3c2)C[C@@H](c2ccc3c(c2)OCO3)C1 | active: 2.59 µM | –
48 | CCOC(=O)c1c(NC(=O)CSc2ncccn2)sc(C(=O)NC)c1C | inconclusive [inhibitor, single point] | –
49 | CCc1ccccc1NC(=O)Cn1c(=O)n(CCc2ccccc2)c(=O)c2sc3ccccc3c21 | – | inconclusive: -35.9% [inhibitor]
50 | CN(C)/N=C/c1ccc(Sc2ccccc2[N+](=O)[O-])o1 | inconclusive [inhibitor, single point] | –
51 | Cc1cc(C(=O)N2CCN(c3ccccc3F)CC2)c2c(C)nn(-c3ccccc3)c2n1 | inconclusive [inhibitor, single point] | –
52 | Cc1cc(C)cc(Cn2cc(CN3CC(N4CCN(Cc5ccccc5F)CC4)CS3(=O)=O)nn2)c1 (stereo not given) | inconclusive [inhibitor, single point] | –
53 | CCOC(=O)CCc1c(C)c2ccc(OCC(=O)N(CC)CC)c(C)c2oc1=O | inconclusive [inhibitor, single point] | –
54 | CCOC(=O)C(C(=O)c1ccccc1)C(c1ccccc1)c1nccc2ccccc12 (stereo not given) | inconclusive [inhibitor, single point] | –
55 | CCOc1ccc2ccccc2c1/C=N/NC(=O)CNC(=O)c1ccccc1O | inconclusive [inhibitor, single point] | –
56 | Cc1ccc(S(=O)(=O)N(CCO)Cc2cc3ccc(C)c(C)c3[nH]c2=O)cc1 | inconclusive [inhibitor, partial curve] | –
57 | CS(=O)(=O)Nc1ccc(C(=O)NCCc2ccccc2)cc1 | inconclusive [inhibitor, partial curve, poor fit] | –
58 | CC(C)CC(C(=O)OCC(=O)c1c(N)n(C)c(=O)n(C)c1=O)N1C(=O)C2CC=CCC2C1=O (stereo not given) | inconclusive [inhibitor, single point] | –
59 | CC(C)Oc1cccc(NC(=O)C2(C)CCN2C(C)C)c1 (stereo not given) | inconclusive [inhibitor, single point] | –
60 | COc1ccc(-c2cc3nc(C)cc(-c4ccc(OC)cc4)n3n2)cc1 | inconclusive [inhibitor, single point] | –
61 | O=C(NCCOc1ccccc1)[C@@H]1CCCN1C(=O)c1cccs1 | inactive | –
62 | O=C(Nc1cccc(C(F)(F)F)c1)c1cc(S(=O)(=O)N2CCCCC2)ccc1N1CCOCC1 | active: 18.4 µM | –
63 | O=C(COC(=O)c1ccccn1)Nc1ccc(S(=O)(=O)N2CCOCC2)cc1 | inactive | –
64 | CC(C)Oc1ccccc1C1NC(=O)CCC1[N+](=O)[O-] (stereo not given) | inactive | –
65 | COc1ccc(CCNC(=O)c2ccc(Cn3c(=O)c4cccn4c4cccnc43)cc2)cc1OC | inconclusive [inhibitor, partial curve] | –
